Some of the results follow.

This test deals with PfAP2-HC AP2 domain (GST-tagged). As to the kind of experiment: gcPBM binding intensity (ln(normalized median fluorescence intensity)); higher = stronger DNA binding. The method in brief:
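After 1 h on an Agilent 4 × 180k array of primer-extended double-stranded 36-bp intergenic genomic probes and negative controls, bound GST-tagged P. falciparum DNA-binding domains were detected with Alexa488 anti-GST antibody and scanned at 488 nm. The domains had been expressed in E. coli, and binding took place in 1× PBS with 1% milk, 0.2 mg/ml BSA, 0.5% salmon testes DNA and 0.03% Triton X-100. Binding intensity is the highest Masliner-normalised natural-log median intensity across replicate spots of either probe orientation.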
Regarding “ATATATATATATGATACATGCATATATTTTTTCTTC [TGCATGCA_site216]”, the “gcPBM binding intensity (ln)” value came to 9.96.
Under “TATATATATATAAAGGTGCATATCTTTACGTATGTC [GTGCAC_site9665]” stands 9.67; under “ATAAAATGGGCAAACACACACAAAAAAAAGATATAT [CACACA_site1648]”, 10.3.
To AGGGGCGAAACAAAGGTGCTTTTATAAAATATGTAA belongs 9.41.
Under “CCCAATAATTAAACAACACACATATATATCTGTAAT [CACACA_site5667]” stands 10.1; under “AGAAATCATCTGAATTGTACTAACAATTTTTTTTAA [XGTACX_site6191]”, 9.43.
Turning to “AGAGAAGAAAACAAAACACACACATATATCTTAATA [CACACA_site8699]”, the “gcPBM binding intensity (ln)” value is 10.2.
Turning to “AACTTAAAAAAAAAAAAAAAAAAAAAAAAAAAAAAA [GTGCAC_negctrl_site34]”, the “gcPBM binding intensity (ln)” value was found to be 9.07.
To “CTTAAATCTACTATTTGTACATATTTTATTATTAAA [XGTACX_site6151]” belongs 9.69.
Under “TATTATAATAAAATATGTACACACATACACACATAT [XGTACX_site2360]” stands 10.3.
Take AGAGGGGAAAACATGATGCACTAGTATAACCAAGAA: the “gcPBM binding intensity (ln)” value stood at 9.8.
For the sequence “TTTCCTTATAAAAATACACACAAACTTTCATTAAAA [CACACA_site5953]”, the “gcPBM binding intensity (ln)” value is 9.61.
To “TCATATTATTATATATGTACATACCAATATATTATA [XGTACX_site2988]” belongs 9.73; to “TAGATATGTCTAAAAAGTACTTTCTATAACAATTCT [XGTACX_site6678]”, 9.4.
With “AACACCAAACAAAGGTGTACATATAGGAAAAAATCT [XGTACX_site1006]”, the “gcPBM binding intensity (ln)” value came out at 9.68.
Consider “TACACGCAGAAACACACACACACACCCATATATATA [CACACA_site637]”, for which the “gcPBM binding intensity (ln)” value was determined as 11.4.
To “TATCACATATTATGATGTACAAAGATTCTGACTAAT [XGTACX_site2770]” belongs 9.45.
For the sequence “TGTTATATATATACAAACATACACATTTATAAACAA [TGCATGCA_negctrl_site235]”, the “gcPBM binding intensity (ln)” value was found to be 9.6.
Under “AAAAAAAGAAAAAAAACACACACAAATATAAATAAA [CACACA_site8309]” stands 10.9; under “TTATGATCATTTATATGTACACATAATTTTTGTGCT [XGTACX_site5568]”, 9.79; under “TATTAATTTCTTTTTTCTCATCACTTTCAAAATGAA [CACACA_negctrl_site1055]”, 9.13.
To “GTTCAAATTCTTATACCTTTTTATTGAGCCATAATA [CACACA_negctrl_site210]” belongs 9.58; to “GAATGAATGATAAATTTTTTTTTCTTTTTTTTTTTG [CACACA_negctrl_site333]”, 9.27.
Turning to “AGCATATATTAAACATGTACATAAATATATTATATA [XGTACX_site1451]”, the “gcPBM binding intensity (ln)” value worked out at 9.66.
To “TGATAACTAAATACATGTACAAATTAAAAAGAAAAA [XGTACX_site3080]” belongs 9.89.

The values above are taken from the supplement of paper PMC11417369.
